Data from the supplement of paper PMC3334620.
Over roughly 33,000 sequences, “E-score (-0.5 to 0.5)” has its median near -0.016; the highest 2% begin near 0.32. The list shows a part of the results.

Biological target: T1, Stp1 (UniProt B3LFK1)
T1 sequence: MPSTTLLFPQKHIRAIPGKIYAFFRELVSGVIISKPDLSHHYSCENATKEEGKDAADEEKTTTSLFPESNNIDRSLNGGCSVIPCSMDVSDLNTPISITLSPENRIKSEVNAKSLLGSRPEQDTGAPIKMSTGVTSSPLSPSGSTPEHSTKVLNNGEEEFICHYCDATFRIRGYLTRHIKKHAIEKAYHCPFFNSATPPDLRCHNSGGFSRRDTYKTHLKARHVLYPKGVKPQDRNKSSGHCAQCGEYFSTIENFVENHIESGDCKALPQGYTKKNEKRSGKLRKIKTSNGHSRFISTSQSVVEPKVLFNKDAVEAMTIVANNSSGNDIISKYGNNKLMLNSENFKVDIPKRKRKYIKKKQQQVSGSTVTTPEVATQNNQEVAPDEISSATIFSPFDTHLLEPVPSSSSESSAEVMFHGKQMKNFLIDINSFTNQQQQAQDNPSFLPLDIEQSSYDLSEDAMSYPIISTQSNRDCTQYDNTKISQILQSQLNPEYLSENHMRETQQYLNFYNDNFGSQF
Experiment: PBM E-score (8-mer binding enrichment) (E-score (-0.5 to 0.5)); higher = stronger / more preferred TF binding; most listed sequences are background and not binding sites
Conditions: protein concentration: 200 nM; construct: GST-full length
In short: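 Using PURExpress in vitro transcription/translation, GST-tagged yeast transcription factors were made in full-length or DNA-binding-domain form. These were applied at about 100-200 nM to double-stranded universal all-10-mer Agilent arrays, and bound protein was detected with fluorescent anti-GST. Scans were normalised with masliner before the Universal PBM Analysis Suite assigned E-scores to ungapped eight-base words pooled with their reverse complements.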

| Sequence | PBM E-score |
| --- | --- |
| CCCCTCGG | -0.33 |
| AAGCTCAC | -0.136 |
| AGATGGCT | 0.0349 |
| CTACATAG | -0.0467 |
| CTGATCCC | -0.284 |
| GACCCGCC | -0.0933 |
| ATCACATG | -0.0426 |
| ACAACGGA | 0.161 |
| AGCTGCCC | -0.0851 |
| AGCGTAGA | -0.118 |
| AATCAGGA | -0.0394 |
| ATAAGTGA | -0.0348 |
| GCCAATAC | -0.0249 |
| GGACGATA | -0.203 |
| CGTCGCGC | -0.0299 |
| ATACGAGG | -0.0633 |
| AGCCGCGA | 0.159 |
| GTACACCA | -0.00569 |
| CAGACTCA | -0.144 |
| CATCCCGC | 0.141 |
| ACTCGCCG | 0.315 |
| GGACAGAA | -0.0242 |

| Sequence | PBM E-score |
| --- | --- |
| AAAGATTA | 0.0112 |
| CGCTCTTC | -0.175 |
| ATGAGCGC | 0.157 |
| GATTCCGA | 0.087 |
| AAACTAGT | 0.0163 |
| GACGGGCA | -0.00302 |
| CGCAGTAC | 0.0649 |
| AACTCGAA | 0.107 |
| AGCTCATC | -0.307 |
| ACGTTATG | 0.0357 |
| GCTTATTA | 0.251 |
| CATGGCTA | -0.0935 |
| TCGCCTAA | 0.0152 |
| CCTAACAG | 0.121 |
| ACACGAAG | 0.161 |
| AGGAAAGG | -0.0432 |
| CTAGATCA | -0.0354 |
| ACCGTGAG | -0.086 |
| TTAAGGAA | 0.144 |
| GATGCAAC | -0.172 |
| CGTTCAAC | 0.154 |
| CTTGCTGC | 0.0525 |

| Sequence | PBM E-score |
| --- | --- |
| ATACGAAC | 0.153 |
| GAGGGGGA | -0.346 |
| AGCACCCA | -0.277 |
| CTCCCAGA | -0.286 |
| ACAGAAGC | 0.0829 |
| GCCATGGC | 0.0492 |
| AGTTCCTA | 0.135 |
| CGGGATAC | -0.228 |
| ATAATGCG | -0.0164 |
| GGCTCCCC | -0.217 |
| AACTTAGT | -0.016 |
| ATCATGTG | -0.0209 |
| AAACTACA | 0.175 |
| ACGGCAGA | 0.367 |
| CATCGAAC | -0.0684 |
| ACTGATCG | -0.254 |
| GCCTGGGA | -0.201 |
| ATTTCGTC | 0.082 |
| TATAACAA | 0.172 |
| CCCGAGGG | -0.245 |
| GTGAAGTA | -0.0855 |
| AACCGTTC | 0.111 |

| Sequence | PBM E-score |
| --- | --- |
| AGGTGGGC | -0.203 |
| ACCCACCT | -0.302 |
| AGTCGAAT | -0.184 |
| CCTGTCAC | -0.0652 |
| CCGACAAC | 0.0549 |
| AATGAGAA | 0.0291 |
| CCTGTACC | -0.187 |
| CGTCACAG | 0.0515 |
| ATAAGCGA | 0.129 |
| ACGCACAC | 0.104 |
| AGTGTGAT | 0.161 |
| GAGAAGTA | -0.124 |
| CGGGGAGC | -0.0674 |
| ATTGCACA | 0.156 |
| CGCACGAC | 0.0873 |
| ACTCGCTA | -0.128 |
| AATACCTG | -0.183 |
| CCTCCGAA | -0.24 |
| GAACAGGC | -0.0513 |
| CTGATTGA | -0.0409 |
